Laboratory results published in patent US20210363232A1 (Eli Lilly, published 2021).

Experiments:
Assay in all cases: cell-based or functional assay
[1] = biological target: T1, mature Human IL-34 (human, UniProt Q6ZMJ4 21-242)
T1 sequence: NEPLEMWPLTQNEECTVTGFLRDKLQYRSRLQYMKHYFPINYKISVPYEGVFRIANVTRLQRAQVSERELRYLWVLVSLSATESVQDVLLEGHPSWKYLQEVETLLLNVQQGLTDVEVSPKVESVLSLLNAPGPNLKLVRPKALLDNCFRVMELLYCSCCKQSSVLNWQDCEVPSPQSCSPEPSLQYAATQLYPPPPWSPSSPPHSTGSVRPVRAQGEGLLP

[2] = biological target: IL-34 (species not stated)
[3] = biological target: T1, mature Human IL-34; remark: listed apart in the source

IL-34 (species not stated), sequence (Q8R1R4 21-235): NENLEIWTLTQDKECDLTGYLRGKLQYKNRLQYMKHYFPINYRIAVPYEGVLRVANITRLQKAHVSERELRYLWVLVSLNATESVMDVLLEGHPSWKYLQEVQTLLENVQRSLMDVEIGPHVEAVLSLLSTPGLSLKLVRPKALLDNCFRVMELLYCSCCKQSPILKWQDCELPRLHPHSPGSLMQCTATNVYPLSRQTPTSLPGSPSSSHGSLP

IC50; neutralization of human IL-34 induced luciferase reporter activity, hCSF1R 293 SRE cells [1]: 0.56 nM
IC50; inhibition of IL-34 induced ERK phosphorylation in NIH-3T3/CSF1R cells [2]: 63.2 nM
IC50; inhibition of human IL-34 induced CSF1R dimerization, PathHunter eXpress assay [3]: 0.352 nM
B1: Human CSF1R Fc fusion protein (Exemplified compound D) (Fc fusion, not shown: a dimerising Fc or GST)
chain: not shown
